{"source": "paper PMC12136788", "binders": {"B1": {"name": "chr1:180459674:180459675:+_ENSMUSG00000026494_ENSMUST00000161017|mus_hu|motif|central (ssRNA)", "RNA": "GGGAGUUCUACAGUCCGACGAUCGCCUCUCUUUAUUCCCAGCUACCGAAUUCAUGGUGGCUUUUCCAGAGGAGAGUAUCGGAAGGUUCCACCGACGCUACAUCCAGAAGGUCCUCCAACCCAGAAGCGUCCCCCGGCUGCAGGCAACAGAGGAUUGAGCAUCA"}, "B2": {"name": "44573525_44588634_111_5pUTR_ENSG00000138078_ENST00000409411|human|control|control (ssRNA)", "RNA": "GGGAGUUCUACAGUCCGACGAUCGAUCGCAAAUUGAGAGAAUCAGUCCGGCUCUGGACACAAACCAGUGAAGGCAGGCCGGAGAACCUGAAGCUCUCAGAGGGGAGCAGGUGUCACCGCAGGCAAGUCCAGCCGAAGUCUGCGCAACAGAGGAUUGAGCAUCA"}, "B3": {"name": "chr4:48381769:48381770:+_ENSG00000109171_ENST00000512093|hu_hu|motif|central (ssRNA)", "RNA": "GGGAGUUCUACAGUCCGACGAUCCUUAUAAUUGGAUCCAAUUGAAUCUUCAUCUAAUUCUGAAGCACUUAACUCACGGUCGGUAGAGGACUGAGGACUGAGUGGAGGAUUUCUGUCUGAGCUUUUCAAGUUACCUGAAUUUCCCAACAGAGGAUUGAGCAUCA"}, "B4": {"name": "chr3:20017139:20017140:+_ENSG00000144566_ENST00000273047|hu_hu|FALSE|FALSE (ssRNA)", "RNA": "GGGAGUUCUACAGUCCGACGAUCGAUAUCAUAUACAACUAUGGCUGCUUGUGCUCCUCUGUAGUACAUUGGUGCUAGGCUAUGGUAUCGUUCUUGACCAGCUGUAUCCCAUAUUUCAAACUUUACUGUAGUGUCAUCAAGACACAACAGAGGAUUGAGCAUCA"}, "B5": {"name": "chr11:87794976:87794977:-_ENSMUSG00000020483_ENSMUST00000020775|perfect_dup|FALSE|FALSE (ssRNA)", "RNA": "GGGAGUUCUACAGUCCGACGAUCGCAACGCCGCCUGCUUGCCAUCGCUGCCGCCGCCACUGACACCUUCACCAUGGCCACCUAGCCUGACUUGAAGAGGAGGAUUGCAACUUGACCCAAGUAAAAAUAGAUGAAGUGCUUUGUCAACAGAGGAUUGAGCAUCA"}, "B6": {"name": "chr14:78894897:78894898:-_ENSMUSG00000022016_ENSMUST00000123853|mus_mus|FALSE|FALSE (ssRNA)", "RNA": "GGGAGUUCUACAGUCCGACGAUCAUUUAAUGUUAAUAGUGGUUUUCUAACUAAGAAAACACUAAAGUAAAAGAAUAAACUAGUGGGAAGGUUAAAGUUUAUCCUCUCACGCACGCGCACACACACACACACACACAUUCUCUCCAACAGAGGAUUGAGCAUCA"}}, "note": "This is one part of the list.", "data": [{"biological_target": "T1, UNK ZnF1-3 (human, UniProt Q9C0B0 31-174)", "T1 sequence": "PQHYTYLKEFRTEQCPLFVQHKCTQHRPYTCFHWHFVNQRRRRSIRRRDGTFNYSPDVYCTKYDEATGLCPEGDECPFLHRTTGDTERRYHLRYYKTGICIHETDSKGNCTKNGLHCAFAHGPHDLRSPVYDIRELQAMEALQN", "assay": "nsRBNS (natural sequence RNA bind-n-seq); RBNS binding buffer (assumed for nsRBNS): 25 mM Tris pH 7.5, 150 mM KCl, 3 mM MgCl2, 0.01% Triton X-100, 500 ug/ml BSA, 20 U/ml SUPERase-In, 4 C; UNK is unkempt and MSI1 is Musashi-1; names of the RNAs are library labels; protein concentration not given here; high values mean tight binding", "units": {"binding signal": "enrichment R"}, "values": [{"binder": "B1", "binding signal": 1.1}, {"binder": "B2", "binding signal": 0.744}, {"binder": "B3", "binding signal": 1.57}, {"binder": "B4", "binding signal": 0.936}, {"binder": "B5", "binding signal": 1.94}, {"binder": "B6", "binding signal": 1.09}]}]}
